# According to the supplement of paper PMC8728848:
# The other results are listed elsewhere or left out.
# Assays:
# Assay in all cases: glycan array binding signal (z-score within array); higher = stronger binding
# Conditions in all cases: glycan notation: IUPAC condensed, linker removed
# [1] = target: GalNAc(b1-3)Gal(a1-4)Gal(b1-4)GlcNAc(b1-3)Gal(b1-4)Glc
# How it was run: (§1)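 Columns mapping to the same glycan were averaged after glycan names were converted to IUPAC-condensed notation. The data come from 3228 arrays in the Consortium for Functional Glycomics database, limited to those with an available protein sequence. Binding is reported as a within-array Z-score averaged across arrays of one protein sequence and across linkers.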
# [2] = target: GalNAc(b1-3)Gal(a1-6)Gal(b1-4)Glc
# How it was run: as §1
# GalNAc(b1-3)GalNAc = target: GalNAc(b1-3)GalNAc
# How it was run: as §1
# GalNAc(b1-3)GlcNAc = target: GalNAc(b1-3)GlcNAc
# How it was run: as §1
# GalNAc(b1-4)Gal(b1-4)Glc = target: GalNAc(b1-4)Gal(b1-4)Glc
# How it was run: as §1
# GalNAc(b1-4)GlcNAc = target: GalNAc(b1-4)GlcNAc
# How it was run: as §1
# [3] = target: GalNAc(b1-4)GlcNAc(b1-2)Man
# How it was run: as §1
# [4] = target: GalNAc(b1-4)GlcNAc(b1-2)Man(a1-3)[GalNAc(b1-4)GlcNAc(b1-2)Man(a1-6)]Man(b1-4)GlcNAc(b1-4)GlcNAc
# How it was run: as §1
# [5] = target: GalNAc(b1-4)GlcNAc(b1-3)GalNAc(b1-4)GlcNAc
# How it was run: as §1
# GalNAc(b1-4)GlcNAc6S = target: GalNAc(b1-4)GlcNAc6S
# How it was run: as §1
# GalNAc(b1-6)GalNAc = target: GalNAc(b1-6)GalNAc
# How it was run: as §1
# GalNAc3S(b1-4)GlcNAc = target: GalNAc3S(b1-4)GlcNAc
# How it was run: as §1
# GalNAc3S(b1-4)GlcNAc3S = target: GalNAc3S(b1-4)GlcNAc3S
# How it was run: as §1
# [6] = target: GalNAc3S(b1-4)[Fuc(a1-3)]GlcNAc
# How it was run: as §1
# GalNAc4S6S(b1-4)GlcNAc = target: GalNAc4S6S(b1-4)GlcNAc
# How it was run: as §1
# GalNAc6S(b1-4)GlcNAc = target: GalNAc6S(b1-4)GlcNAc
# How it was run: as §1
# Glc(a1-4)Glc = target: Glc(a1-4)Glc
# How it was run: as §1
# [7] = target: Glc(a1-4)Glc(a1-4)Glc(a1-4)Glc
# How it was run: as §1
# Glc(a1-6)Glc(a1-6)Glc = target: Glc(a1-6)Glc(a1-6)Glc
# How it was run: as §1
# [8] = target: Glc(a1-6)Glc(a1-6)Glc(a1-6)Glc
# How it was run: as §1
# Glc(b1-4)Glc = target: Glc(b1-4)Glc
# How it was run: as §1
# Glc(b1-6)Glc = target: Glc(b1-6)Glc
# How it was run: as §1
# GlcA(b1-3)Gal = target: GlcA(b1-3)Gal
# How it was run: as §1
# GlcA(b1-3)GlcNAc = target: GlcA(b1-3)GlcNAc
# How it was run: as §1
# GlcA(b1-6)Gal = target: GlcA(b1-6)Gal
# How it was run: as §1
# [9] = target: GlcA3S(b1-3)Gal(b1-4)GlcNAc(b1-2)Man
# How it was run: as §1
# [10] = target: GlcA3S(b1-3)Gal(b1-4)GlcNAc(b1-3)Gal(b1-4)Glc
# How it was run: as §1
# [11] = target: GlcNAc(a1-3)Gal(b1-4)GlcNAc
# How it was run: as §1
# [12] = target: GlcNAc(a1-4)Gal(b1-3)GlcNAc
# How it was run: as §1
# [13] = target: GlcNAc(a1-4)Gal(b1-4)GalNAc
# How it was run: as §1
# [14] = target: GlcNAc(a1-4)Gal(b1-4)GlcNAc
# How it was run: as §1
# [15] = target: GlcNAc(a1-4)Gal(b1-4)GlcNAc(b1-3)Gal(b1-4)Glc
# How it was run: as §1
# [16] = target: GlcNAc(a1-4)Gal(b1-4)GlcNAc(b1-3)Gal(b1-4)GlcNAc
# How it was run: as §1
# [17] = target: GlcNAc(a1-4)Gal(b1-4)GlcNAc(b1-3)Gal(b1-4)GlcNAc(b1-3)Gal(b1-4)GlcNAc
# How it was run: as §1
# [18] = target: GlcNAc(a1-4)Gal(b1-4)GlcNAc(b1-3)Gal(b1-4)[Fuc(a1-3)]GlcNAc(b1-3)Gal(b1-4)[Fuc(a1-3)]GlcNAc
# How it was run: as §1
# [19] = target: GlcNAc(a1-6)Gal(b1-4)GlcNAc
# How it was run: as §1
# [20] = target: GlcNAc(b1-2)Gal(b1-3)GalNAc
# How it was run: as §1
# [21] = target: GlcNAc(b1-2)Man(a1-3)[GlcNAc(b1-2)Man(a1-6)]Man(b1-4)GlcNAc(b1-4)GlcNAc
# How it was run: as §1
# [22] = target: GlcNAc(b1-2)Man(a1-3)[GlcNAc(b1-2)Man(a1-6)]Man(b1-4)GlcNAc(b1-4)[Fuc(a1-6)]GlcNAc
# How it was run: as §1
# [23] = target: GlcNAc(b1-2)Man(a1-3)[GlcNAc(b1-4)][GlcNAc(b1-2)Man(a1-6)]Man(b1-4)GlcNAc(b1-4)GlcNAc
# How it was run: as §1
# [24] = target: GlcNAc(b1-2)Man(a1-3)[GlcNAc(b1-4)][GlcNAc(b1-2)Man(a1-6)]Man(b1-4)GlcNAc(b1-4)[Fuc(a1-6)]GlcNAc
# How it was run: as §1
# [25] = target: GlcNAc(b1-2)[GlcNAc(b1-4)]Man(a1-3)[GlcNAc(b1-2)Man(a1-6)]Man(b1-4)GlcNAc(b1-4)GlcNAc
# How it was run: as §1
# [26] = target: GlcNAc(b1-2)[GlcNAc(b1-4)]Man(a1-3)[GlcNAc(b1-4)][GlcNAc(b1-2)Man(a1-6)]Man(b1-4)GlcNAc(b1-4)GlcNAc
# How it was run: as §1
# [27] = target: GlcNAc(b1-2)[GlcNAc(b1-4)]Man(a1-3)[GlcNAc(b1-4)][GlcNAc(b1-2)[GlcNAc(b1-6)]Man(a1-6)]Man(b1-4)GlcNAc(b1-4)GlcNAc
# How it was run: as §1
# [28] = target: GlcNAc(b1-2)[GlcNAc(b1-4)]Man(a1-3)[GlcNAc(b1-4)][GlcNAc(b1-2)[GlcNAc(b1-6)]Man(a1-6)]Man(b1-4)GlcNAc(b1-4)[Fuc(a1-6)]GlcNAc
# How it was run: as §1
binder,measurement,setting,value
rMpL (Macrolepiota procera) (protein) MSTQVSSGRTYKITNVIAGTVIDLSGEDNKSIIGYPYHSGKNQQWTFNWTGKAWTLRSASSGSYLGIEGTPAGGTRLVAVNDPFEWHIWRDEANENAFRIFVPFTNYNLDLSGYGDTTPGTPVQLWWTWEGLHQTWTIDRP,glycan array binding signal (z-score),[1],-0.134
same,glycan array binding signal (z-score),[2],-0.277
same,glycan array binding signal (z-score),GalNAc(b1-3)GalNAc,-0.311
same,glycan array binding signal (z-score),GalNAc(b1-3)GlcNAc,0.11
same,glycan array binding signal (z-score),GalNAc(b1-4)Gal(b1-4)Glc,-0.208
same,glycan array binding signal (z-score),GalNAc(b1-4)GlcNAc,0.483
same,glycan array binding signal (z-score),[3],0.409
same,glycan array binding signal (z-score),[4],1.16
same,glycan array binding signal (z-score),[5],2.87
same,glycan array binding signal (z-score),GalNAc(b1-4)GlcNAc6S,-0.293
same,glycan array binding signal (z-score),GalNAc(b1-6)GalNAc,-0.314
same,glycan array binding signal (z-score),GalNAc3S(b1-4)GlcNAc,-0.39
same,glycan array binding signal (z-score),GalNAc3S(b1-4)GlcNAc3S,-0.338
same,glycan array binding signal (z-score),[6],-0.321
same,glycan array binding signal (z-score),GalNAc4S6S(b1-4)GlcNAc,-0.337
same,glycan array binding signal (z-score),GalNAc6S(b1-4)GlcNAc,-0.256
same,glycan array binding signal (z-score),Glc(a1-4)Glc,-0.289
same,glycan array binding signal (z-score),[7],-0.2
same,glycan array binding signal (z-score),Glc(a1-6)Glc(a1-6)Glc,-0.323
same,glycan array binding signal (z-score),[8],-0.31
same,glycan array binding signal (z-score),Glc(b1-4)Glc,-0.295
same,glycan array binding signal (z-score),Glc(b1-6)Glc,-0.305
same,glycan array binding signal (z-score),GlcA(b1-3)Gal,-0.315
same,glycan array binding signal (z-score),GlcA(b1-3)GlcNAc,-0.129
same,glycan array binding signal (z-score),GlcA(b1-6)Gal,1.71
same,glycan array binding signal (z-score),[9],-0.3
same,glycan array binding signal (z-score),[10],-0.416
same,glycan array binding signal (z-score),[11],-0.394
same,glycan array binding signal (z-score),[12],-0.249
same,glycan array binding signal (z-score),[13],-0.293
same,glycan array binding signal (z-score),[14],-0.335
same,glycan array binding signal (z-score),[15],-0.434
same,glycan array binding signal (z-score),[16],-0.349
same,glycan array binding signal (z-score),[17],-0.353
same,glycan array binding signal (z-score),[18],-0.16
same,glycan array binding signal (z-score),[19],2.83
same,glycan array binding signal (z-score),[20],-0.29
same,glycan array binding signal (z-score),[21],-0.322
same,glycan array binding signal (z-score),[22],-0.192
same,glycan array binding signal (z-score),[23],-0.341
same,glycan array binding signal (z-score),[24],-0.334
same,glycan array binding signal (z-score),[25],-0.251
same,glycan array binding signal (z-score),[26],-0.353
same,glycan array binding signal (z-score),[27],-0.358
same,glycan array binding signal (z-score),[28],-0.401
